The list shows a part of the results. At the low end of the ranking the order means little.
target: GST-SBP-SLBP (stem-loop binding protein) (UniProt Q14493); assay: targeted RNA Bind-n-Seq; conditions: RBNS binding buffer: 25 mM Tris pH 7.5, 150 mM KCl, 3 mM MgCl2, 0.1% Tween, 0.5 mg/mL BSA, 1 mM DTT; 27 nM protein, 750 pM RNA pool; temperature not stated; high values mean tight binding;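 further: DESeq read counts versus GST-SBP nonspecific binding control pulldown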

Sequence	binding signal (log2 fold change)
GGUCACGUCUCAAUCAACUCAUUAGAGGGGGGGAAAACCCCUUUGCCCUCACUAUCAACAGCUCGCAGUCAAG	-0.537
GGUCACGUCUCAAUCAACUCAUUAGAGGGGGGGAAAACCCCUUUACCCUCAACUUCAACAGCUCGCAGUCAAG	-0.078
GGUCACGUCUCAAUCAACUCAUCCUCCAGGGAAAACCCUGGCAAUCUCAACAGCUCGCAGUCAAG	-0.0698
GGUCACGUCUCAAUCAACUCACACGAGGGGGGGAAAACCCCUUUGCCCUCAACAUCAACAGCUCGCAGUCAAG	0.529
GGUCACGUCUCAAUCAACUCUUAAGAGGGGGGGAAAACCCCUUUACCCUCAAAUUCAACAGCUCGCAGUCAAG	-0.0482
GGUCACGUCUCAAUCAACUCUAUCGAGGGGGGGAAAACCCCUUUGCCCUCAACAUCAACAGCUCGCAGUCAAG	-0.081
GGUCACGUCUCAAUCAACUCCCUAGAGGGGGGGAAAACCCCUUUACCCUCAAUAUCAACAGCUCGCAGUCAAG	-0.00708
GGUCACGUCUCAAUCAACUCCCUCGAGGGGGGGAAAACCCCUUUACCCUCACACUCAACAGCUCGCAGUCAAG	-0.451
GGUCACGUCUCAAUCAACUCUAGUCCAGGAGUUUCCUCCUGUUUAUUCAACAGCUCGCAGUCAAG	-0.103
GGUCACGUCUCAAUCAACUCUUCUCCAGGAGUUUUCUCCUGCUAACUCAACAGCUCGCAGUCAAG	-0.00318
GGUCACGUCUCAAUCAACUCAAGGUCAGGAGUUUUCUCCUGUAAUUUCAACAGCUCGCAGUCAAG	-0.00154
GGUCACGUCUCAAUCAACUCUACAGAGGGGGGGAAAACCCCUUUACCCUCCAACUCAACAGCUCGCAGUCAAG	0.294
GGUCACGUCUCAAUCAACUCUUUCCCAGGAGUUUUCUCCUGUAUUCUCAACAGCUCGCAGUCAAG	0.213
GGUCACGUCUCAAUCAACUCAUAAGAGGGGGGGAAAACCCCUUUGCCCUCCAUAUCAACAGCUCGCAGUCAAG	-0.421
GGUCACGUCUCAAUCAACUCUUUCCCAGGAGUUUUCUCCUGUAAUCUCAACAGCUCGCAGUCAAG	-0.139
GGUCACGUCUCAAUCAACUCAAUCUCCAGGGAAAUCCCUGGCAAAGUCAACAGCUCGCAGUCAAG	-0.125
GGUCACGUCUCAAUCAACUCAUUCCCAGGAGUUUUCUCCUGUAUUCUCAACAGCUCGCAGUCAAG	-0.0238
GGUCACGUCUCAAUCAACUCAUCCUCCAGGGAAACCCCUGGCAUUCUCAACAGCUCGCAGUCAAG	0.0544
GGUCACGUCUCAAUCAACUCUUACGAGGGGGGGAAAACCCCUUUACCCUCCAUAUCAACAGCUCGCAGUCAAG	-0.0754
GGUCACGUCUCAAUCAACUCUUUUCCAGGAGUUUUCUCCUGUUUACUCAACAGCUCGCAGUCAAG	-0.108
GGUCACGUCUCAAUCAACUCUUUCUCCAGGGAAACCCCUGGUAUUUUCAACAGCUCGCAGUCAAG	-0.279
GGUCACGUCUCAAUCAACUCAUUAGAGGGGGGGAAAACCCCUUUGCCCUCAACAUCAACAGCUCGCAGUCAAG	0.0354
GGUCACGUCUCAAUCAACUCAUUCUCCAGGGAAACCCCUGGCUAAUUCAACAGCUCGCAGUCAAG	0.0376

Sequence	binding signal (log2 fold change)
GGUCACGUCUCAAUCAACUCUUCUUCAGGAGUUUUCUCCUGCUUAUUCAACAGCUCGCAGUCAAG	0.0161
GGUCACGUCUCAAUCAACUCUUUUUCCAGGGAAAGCCCUGGUUAUCUCAACAGCUCGCAGUCAAG	0.274
GGUCACGUCUCAAUCAACUCGCACGAGGGGGGGAAAACCCCUUUACCCUCAAUAUCAACAGCUCGCAGUCAAG	-0.23
GGUCACGUCUCAAUCAACUCAAUCUCCAGGGAAAGCCCUGGCUUACUCAACAGCUCGCAGUCAAG	0.196
GGUCACGUCUCAAUCAACUCUCCAGAGGGGGGGAAAACCCCUUUACCCUCAACCUCAACAGCUCGCAGUCAAG	0.0404
GGUCACGUCUCAAUCAACUCAAUUUCAGGAGUUUUCUCCUGUUUAUUCAACAGCUCGCAGUCAAG	-0.178
GGUCACGUCUCAAUCAACUCUCUAGAGGGGGGGAAAACCCCUUUACCCUCAUAUUCAACAGCUCGCAGUCAAG	-0.195
GGUCACGUCUCAAUCAACUCAAAAGAGGGGGGGAAAACCCCUUUGCCCUCACCUUCAACAGCUCGCAGUCAAG	-0.0613
GGUCACGUCUCAAUCAACUCCCUCGAGGGGGGGAAAACCCCUUUACCCUCAAUGUCAACAGCUCGCAGUCAAG	0.0529
GGUCACGUCUCAAUCAACUCUACUCCCAGGGAAAACCCUGGUUUUCUCAACAGCUCGCAGUCAAG	-0.0829
GGUCACGUCUCAAUCAACUCAACUCCCAGGGAAAGCCCUGGUAUUCUCAACAGCUCGCAGUCAAG	-0.021
GGUCACGUCUCAAUCAACUCUUUCCCCAGGGAAAGCCCUGGUAUACUCAACAGCUCGCAGUCAAG	-0.0682
GGUCACGUCUCAAUCAACUCAUCUUCAGGAGUUUUCUCCUGCAAAUUCAACAGCUCGCAGUCAAG	-0.0735
GGUCACGUCUCAAUCAACUCAACAGAGGGGGGGAAAACCCCUUUACCCUCACAAUCAACAGCUCGCAGUCAAG	-0.136
GGUCACGUCUCAAUCAACUCCUUCGAGGGGGGGAAAACCCCUUUACCCUCUCUAUCAACAGCUCGCAGUCAAG	-0.601
GGUCACGUCUCAAUCAACUCAUUCUCCAGGGAAACCCCUGGCUUUCUCAACAGCUCGCAGUCAAG	-0.166
GGUCACGUCUCAAUCAACUCUUUUCCAGGAGUUUUCUCCUGCUUAUUCAACAGCUCGCAGUCAAG	-0.0487
GGUCACGUCUCAAUCAACUCAUUCCCCAGGGAAAGCCCUGGUAUAUUCAACAGCUCGCAGUCAAG	0.0877
GGUCACGUCUCAAUCAACUCCAACGAGGGGGGGAAAACCCCUUUGCCCUCAAUAUCAACAGCUCGCAGUCAAG	0.225
GGUCACGUCUCAAUCAACUCAACAGAGGGGGGGAAAACCCCUUUACCCUCCACAUCAACAGCUCGCAGUCAAG	-0.0237
GGUCACGUCUCAAUCAACUCAUUCCCCAGGGAAAACCCUGGCAUUCUCAACAGCUCGCAGUCAAG	-0.255
GGUCACGUCUCAAUCAACUCGUUUUCAGGAGUUUUCUCCUGUUUAUUCAACAGCUCGCAGUCAAG	0.00593
GGUCACGUCUCAAUCAACUCUAUCCCCAGGGAAAUCCCUGGCUUUUUCAACAGCUCGCAGUCAAG	-0.246

From publication PMC5892938
